Measured values reported in PubChem BioAssay AID652106 (National Center for Advancing Translational Sciences (NCATS), 2013).
Screen size: about 370,000 compounds; about 500 (0.14%) were called active. The shares of active, inactive and inconclusive entries below differ from those in the screen. Calls follow the shape of the dose curve; as a rule, active = well fitted activation curve with a large enough effect; inconclusive = small, poorly fitted or top-dose-only effect; inactive = no such curve, though single readings can be large or run the other way. No potency is given beside an inconclusive call; the fits are too rough.

Test: qHTS of alpha-syn Inhibitors; also: nearly all actives have a fitted effect of over 65% in size
Conditions: Yeast expressing alpha-synuclein, BacTiter-Glo, 24 h; Potency: growth rescue unless noted; series mostly up to 46.1 µM
Method in brief: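 Galactose-induced alpha-syn yeast (OD600=0.02, raffinose-pregrown) + pinned cpd, 24 hr, 30 deg C; growth by BacTiter-Glo luminescence. Growth restoration scores as activation.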
Potency is read from the fitted curve at half-maximal effect; tags tell the direction and shape of the fitted curve.

SMILES | Potency
CCc1ccc(NC(=O)C(C)OC(=O)Cn2[nH]c(=O)c3ccccc3c2=O)cc1 (stereo not given) | inconclusive [activator, single point]
Cc1ccc(OCCC(=O)OCC(=O)c2c(N)n(CC(C)C)c(=O)n(C)c2=O)cc1 | inconclusive [activator, single point]
CCOC(=O)N1CCN(S(=O)(=O)c2cccc3nonc23)CC1 | inconclusive [activator, single point]
O=C(/C=C/c1ccccc1O)c1ccccc1 | inconclusive [activator, single point]
O=C(/C=C/c1ccco1)Oc1cc(Br)cc(/C=N/NC(=O)c2ccccc2O)c1 | active: 22.4 µM
COc1cccc(CNc2nc3cc(-c4ccccc4C)sc3c(=O)n2C)c1 | inconclusive [activator, single point]
COc1ccccc1C(=O)NNC(=O)c1ccc2ccccc2c1O | inconclusive [activator, single point]
O=C(O)/C(=C\c1ccc(Cl)c([N+](=O)[O-])c1)c1ccc(S(=O)(=O)N2CCCCC2)s1 | inactive
C[C@@H]1CN([C@@H](C)CO)C(=O)CCCn2nncc2CO[C@@H]1CN(C)S(=O)(=O)c1ccc(F)cc1 | inconclusive [activator, single point]
Cc1cc2ncn(S(=O)(=O)N3CCCCC3)c2cc1C | inconclusive [activator, full curve]
CCCCC(=O)NC(c1ccc(N(C)C)cc1)c1ccc2cccnc2c1O (stereo not given) | inconclusive [activator, single point]
O=C1c2cccc([N+](=O)[O-])c2C(=O)N1CCO | inactive
O=C(Nc1nnc(-c2ccccc2)o1)c1cc(-c2cccs2)nc2ccccc12 | inconclusive [activator, single point]
Cc1c(Cl)cccc1NS(=O)(=O)c1ccccc1 | inactive
Cc1nnc(C)n1/N=C/c1cc(Br)cc(Br)c1O | inactive
O=C(CSc1nc2ccccc2o1)Nc1nc2ccccc2s1 | inactive
O=C(c1ccc2c(c1)OCO2)N(c1ccc(Cl)cc1)C1C=CS(=O)(=O)C1 (stereo not given) | inconclusive [activator, single point]
O=C(CN1C(=O)S/C(=C\c2cccs2)C1=O)Nc1ccc(C(=O)O)c(O)c1 | inactive
COc1ccc(C(O)c2nc(/C=C/c3ccc(C(F)(F)F)cc3)cs2)cc1 (stereo not given) | inconclusive [activator, single point]
O=C(NCCNC(=O)c1ccc(Br)o1)c1cccnc1 | inactive
CCCOc1ccc(NC(=O)CC2C(=O)N(Cc3ccccc3)C(=S)N2Cc2cccs2)cc1 (stereo not given) | inconclusive [activator, partial curve]
Cc1ccc(C(=O)CC(C(=O)O)n2cnc([N+](=O)[O-])n2)cc1 (stereo not given) | inconclusive [activator, partial curve]
CCOC(=O)C(=O)N(C)c1c(CC)nc2c(OCc3ccccc3OC)cccn12 | inconclusive [activator, single point]
COC(=O)c1ccc(Oc2ccc(S(=O)(=O)N3CCCCC3)cc2N)cc1 | active: 12.6 µM

SMILES | Potency
COc1ccccc1-n1nnnc1SCC(=O)NC1CCCCC1 | inactive
NC(=S)NN=Cc1nccc2c(C(F)(F)C(F)(F)C(F)(F)F)cccc12 | active: 7.08 µM
COc1ccc(Cl)cc1NC(=O)NCC1CCN(Cc2ccccc2F)CC1 | inconclusive [activator, single point]
CCCC/C(O)=C1\C(=O)CC(C)(C)CC1=Nc1ccccc1OC | inactive
O=C(NNC(=S)Nc1cccc2ccccc12)c1cccc(Br)c1 | inconclusive [activator, single point]
O=C(NCCO)C1CCN(C(=O)c2ccc(-c3ccccc3)cc2)CC1 | inactive
O=C(COc1cccc2ccccc12)N1CCN(c2ccccc2)CC1 | inconclusive [activator, single point]
Cc1ccc(-n2[nH]c(C)c(/C=N/N3C(=O)c4cccc5cccc(c45)C3=O)c2=O)cc1 | inconclusive [activator, single point]
O=C(CC1SC(=NC2CCCCC2)NC1=O)Nc1ccccc1 (stereo not given) | inconclusive [activator, single point]
CS(=O)(=O)N(CC(=O)N1CCN(c2cccc(Cl)c2)CC1)c1ccccc1 | inconclusive [activator, single point]
CC(=O)OC(C(=O)Nc1nncs1)c1ccccc1 (stereo not given) | inconclusive [activator, single point]
Oc1c(CN2CCN(c3ccccn3)CC2)cc(Cl)c2cccnc12 | inconclusive [activator, single point]
C=CCN1CCc2c(cc(O)c(O)c2Br)[C@@H](c2ccccc2)C1 | inconclusive [activator, single point]
Nc1nc(N)c2c(OCc3ccc(C(F)(F)F)cc3)cccc2n1 | inconclusive [activator, single point]
c1ccc(-c2nnc(-c3ccccn3)s2)nc1 | inconclusive [activator, single point]
OC(c1ccccc1)(c1ccccc1)C1CCN(C(=S)NCCc2ccccc2)CC1 | inconclusive [activator, single point]
C/C(=N\NC(=O)C1CCCN(S(=O)(=O)c2ccccc2)C1)c1cccnc1 (stereo not given) | inactive
COCCNC(=O)C(=O)NCC1OCCN1C(=O)c1ccc(Cl)cc1 (stereo not given) | inconclusive [activator, single point]
CCCCCCCn1c(NC(=O)CC)nc2ccccc21 | inconclusive [activator, single point]
Cc1cc(O)c(/C=N/OCc2ccc(Cl)cc2Cl)c(=O)o1 | inconclusive [activator, partial curve]
C=Cc1ccc(Cn2c(C)c(C(=O)NCCC#N)sc2=O)cc1 | inconclusive [activator, single point]
Cc1c(CCC(=O)O)c(=O)oc2cc3oc4c(c3cc12)CCCC4 | inconclusive [activator, partial curve]
COc1cc(OC)cc(C(=O)NNC(=O)c2ccccn2)c1 | inconclusive [activator, single point]
COC[C@@H]1CCCN1c1ccc2c(c1)O[C@@H](COCc1ccccc1)CN([C@@H](C)c1ccccc1)S2(=O)=O | inconclusive [activator, single point]

SMILES | Potency
COc1cccc(/C=N/NC(=O)c2c(C)nc3ccc(Br)cn23)c1O | inactive
O=C1Nc2ccc(I)cc2C1=Cc1cc(Br)c(O)c(Br)c1 | active: 3.16 µM
CCOC(=O)c1cc(-c2ccc(F)cc2)n(CC(=O)NCc2cccnc2)c1C | inconclusive [activator, single point]
CC(=O)c1ccc(NC(=O)NC2CC(=O)N(c3ccc4c(c3)OCCO4)C2)cc1 (stereo not given) | inactive
COc1ccc(NC(=O)NC(C(F)(F)F)C(F)(F)F)cc1 | inactive
O=C(c1ccc(CSc2nc3ccncc3[nH]2)cc1)N1CCN(c2cccc(Cl)c2)CC1 | inconclusive [activator, single point]
CC(C(=O)Nc1cccc([N+](=O)[O-])c1)N1C(=O)NC2(CCCC2)C1=O (stereo not given) | inconclusive [activator, single point]
Cc1cccc(S(=O)(=O)Nc2ccc(S(=O)(=O)Nc3nccs3)cc2)c1 | inactive
Brc1cccc(-c2nc3c4ccccc4ccn3c2Cc2ccccc2)c1 | inconclusive [activator, single point]
CN(C)C/C(Cl)=C(\Cl)c1ccccc1 | inconclusive [activator, partial curve]
O=C(O)/C=C/c1cn(-c2ccccc2)nc1-c1ccccc1 | inconclusive [activator, partial curve]
Cc1ccc(-c2csc3nc(-c4ccncc4)[nH]c(=O)c23)cc1 | inconclusive [activator, single point]
CCN(CC)S(=O)(=O)c1cccc(NC(=O)c2cc(=O)[nH]c3ccccc23)c1 | inconclusive [activator, single point]
CCOC(=O)[C@]12Cc3c(cc(OC)c(OC)c3OC)[C@H]1N(Cc1ccccc1)C(=O)c1cc(F)c(F)cc12 | inconclusive [activator, single point]
COC(=O)[C@]12CCCCC=C1N(Cc1ccc(Cl)cc1Cl)C(=O)[C@H](CC(=O)NCc1cccs1)C2 | inconclusive [activator, single point]
CC1=CC2=NC(=O)/C(=C\c3cccn3CCOc3ccccc3)C(=N)N2O1 | inactive
CSc1nc2nc(C)cc(-c3ccccc3)n2n1 | inconclusive [activator, single point]
CCCCn1c(SCc2nc3ccccc3s2)nc2ccccc2c1=O | inactive
CCOC(=O)CSc1nc(-c2ccccc2)ns1 | inactive
CCC(=O)Nc1cccc(C(=O)OCc2cccc([N+](=O)[O-])c2)c1 | inactive
CC(=O)Nc1ccc(Nc2nc(-c3c(C)nc4ccccn34)cs2)cc1 | inconclusive [activator, single point]
COCCN1C(=O)c2ccc(C(=O)Nc3nccs3)cc2C1=O | inactive
